Laboratory results: article PMC5700166
The list shows a part of the results, in another mix than the full data. The list includes weakly bound sequences.

Columns and labels:
Assay in all cases: protein-binding microarray (PBM)
Conditions in all cases: PBM: ~300 nM protein, 6 mM HEPES pH 7.8, 80 mM KCl, 0.5 mM EDTA, 0.5 mM EGTA, 6% glycerol, 35 ng/ul poly-dIdC, 1% milk, 1 h, room temperature; Ap Aiptasia and Nv Nematostella (sea anemones) / Co Capsaspora / Aq Amphimedon (sponge) / Dm Drosophila / Hu human; RHD is the Rel homology domain; high values mean tight binding; most listed sequences are background and not binding sites; double strand, one strand shown
[1] = target: T1, GST-Nv-NF-kB (Cys allele) (UniProt E5G601)
T1 sequence: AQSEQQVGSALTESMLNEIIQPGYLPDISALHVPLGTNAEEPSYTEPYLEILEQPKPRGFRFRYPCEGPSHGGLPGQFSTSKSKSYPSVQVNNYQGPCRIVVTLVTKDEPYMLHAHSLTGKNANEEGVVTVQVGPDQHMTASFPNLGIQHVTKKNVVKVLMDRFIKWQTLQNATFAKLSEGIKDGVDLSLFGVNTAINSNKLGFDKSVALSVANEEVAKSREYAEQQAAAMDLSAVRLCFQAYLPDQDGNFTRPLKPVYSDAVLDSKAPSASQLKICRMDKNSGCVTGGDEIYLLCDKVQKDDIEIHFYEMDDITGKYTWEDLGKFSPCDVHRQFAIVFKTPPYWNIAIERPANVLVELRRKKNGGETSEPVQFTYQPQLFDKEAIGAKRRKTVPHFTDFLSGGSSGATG

GST-Co-NF-kB = target: T2, GST-Co-NF-kB (UniProt F1ARL5)
T2 sequence: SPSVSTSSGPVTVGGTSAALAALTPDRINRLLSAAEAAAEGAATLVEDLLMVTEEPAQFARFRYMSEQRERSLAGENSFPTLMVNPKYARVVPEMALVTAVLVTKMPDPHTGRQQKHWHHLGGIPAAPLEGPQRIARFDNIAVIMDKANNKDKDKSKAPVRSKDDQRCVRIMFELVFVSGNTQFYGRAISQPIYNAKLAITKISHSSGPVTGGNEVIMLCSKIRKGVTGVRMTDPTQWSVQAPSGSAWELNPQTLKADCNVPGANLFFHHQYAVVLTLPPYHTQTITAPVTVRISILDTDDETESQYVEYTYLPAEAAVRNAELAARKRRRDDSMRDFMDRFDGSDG

GST-Aq-NF-kB = target: T3, GST-Aq-NF-kB (UniProt A9Y5G7)
T3 sequence: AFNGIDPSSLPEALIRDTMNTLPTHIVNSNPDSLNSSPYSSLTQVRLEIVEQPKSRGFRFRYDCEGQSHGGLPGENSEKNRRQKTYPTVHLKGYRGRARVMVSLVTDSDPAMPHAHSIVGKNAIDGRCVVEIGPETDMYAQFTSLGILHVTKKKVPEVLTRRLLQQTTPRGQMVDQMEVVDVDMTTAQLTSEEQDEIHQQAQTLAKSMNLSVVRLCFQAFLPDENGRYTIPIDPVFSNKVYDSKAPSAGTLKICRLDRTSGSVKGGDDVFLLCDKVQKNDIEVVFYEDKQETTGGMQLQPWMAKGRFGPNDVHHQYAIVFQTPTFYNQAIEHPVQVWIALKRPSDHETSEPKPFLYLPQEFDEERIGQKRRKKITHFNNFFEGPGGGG

GST-Dm-Relish = target: T4, GST-Dm-Relish (UniProt Q94527)
T4 sequence: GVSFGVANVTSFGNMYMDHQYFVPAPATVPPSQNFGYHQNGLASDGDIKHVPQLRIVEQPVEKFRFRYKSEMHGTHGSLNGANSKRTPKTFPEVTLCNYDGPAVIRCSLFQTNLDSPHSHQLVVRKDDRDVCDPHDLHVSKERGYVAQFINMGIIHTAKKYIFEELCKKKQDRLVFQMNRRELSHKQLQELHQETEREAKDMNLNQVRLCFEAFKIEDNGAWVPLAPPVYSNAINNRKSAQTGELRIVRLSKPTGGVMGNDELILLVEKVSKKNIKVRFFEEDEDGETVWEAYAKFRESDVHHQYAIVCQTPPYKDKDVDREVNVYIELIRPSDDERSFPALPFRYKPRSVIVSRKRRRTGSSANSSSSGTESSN

Sequence	binding signal [1]	binding signal (GST-Co-NF-kB)	binding signal (GST-Aq-NF-kB)	binding signal (GST-Dm-Relish)
CCGATTAACATCAGGGGATTACCTGATGTTAATCGGGTCTTGATTCGCTTGACGCTGCTG	10.5 z-score	3.93 z-score	9.77 z-score	
CCGATTAACATCACCCCGCATGCTGATGTTAATCGGGTCTTGATTCGCTTGACGCTGCTG	0.374 z-score	1.97 z-score	0.987 z-score	0.781 z-score
CCGATTAACATCAAGGTGTTCCCTGATGTTAATCGGGTCTTGATTCGCTTGACGCTGCTG	0.97 z-score	2.38 z-score	2.49 z-score	
CCGATTAACATCAGGGATTAACATGATGTTAATCGGGTCTTGATTCGCTTGACGCTGCTG	0.829 z-score	0.41 z-score	1.83 z-score	4.89 z-score
CCGATTAACATCAAATCGGGAAATGATGTTAATCGGGTCTTGATTCGCTTGACGCTGCTG	3.49 z-score	2 z-score	1.61 z-score	0.283 z-score
CCGATTAACATCAGGGAAACTAATGATGTTAATCGGGTCTTGATTCGCTTGACGCTGCTG	3.94 z-score	3.69 z-score	3.45 z-score	
CCGATTAACATCAGGGAAAGCCCTGATGTTAATCGGGTCTTGATTCGCTTGACGCTGCTG	8.76 z-score	1.84 z-score	8.88 z-score	
CCGATTAACATCAAATCCCCCCGTGATGTTAATCGGGTCTTGATTCGCTTGACGCTGCTG	7.22 z-score	7.74 z-score	6.07 z-score	
CCGATTAACATCAATTTTCCCCGTGATGTTAATCGGGTCTTGATTCGCTTGACGCTGCTG	8.12 z-score	11 z-score	6.2 z-score	4.87 z-score
CCGATTAACATCAAGTTTACCCCTGATGTTAATCGGGTCTTGATTCGCTTGACGCTGCTG	2.2 z-score	6.61 z-score	2.91 z-score	
CCGATTAACATCAATCTTCCCCCTGATGTTAATCGGGTCTTGATTCGCTTGACGCTGCTG	6.99 z-score	9.37 z-score	6.23 z-score	
CCGATTAACATCAGGAAAGTCCCTGATGTTAATCGGGTCTTGATTCGCTTGACGCTGCTG	10.6 z-score	0.673 z-score	9.81 z-score	
CCGATTAACATCAGGATTACCCATGATGTTAATCGGGTCTTGATTCGCTTGACGCTGCTG	2.65 z-score	1.67 z-score	3.19 z-score	2.52 z-score
CCGATTAACATCACATCTTCCCCTGATGTTAATCGGGTCTTGATTCGCTTGACGCTGCTG	6.11 z-score	6.39 z-score	4.78 z-score	
CCGATTAACATCAAATAAATCCCTGATGTTAATCGGGTCTTGATTCGCTTGACGCTGCTG	4.02 z-score	1.92 z-score	5.06 z-score	
CCGATTAACATCAATTATCCCCCTGATGTTAATCGGGTCTTGATTCGCTTGACGCTGCTG	5.48 z-score	7.87 z-score	5.15 z-score	
CCGATTAACATCAGGCAATCCCATGATGTTAATCGGGTCTTGATTCGCTTGACGCTGCTG	-0.214 z-score	0.183 z-score	1.38 z-score	
CCGATTAACATCAAACTCCCCCGTGATGTTAATCGGGTCTTGATTCGCTTGACGCTGCTG	5.44 z-score	7.66 z-score	5.84 z-score	
CCGATTAACATCAAAAAAGCCCCTGATGTTAATCGGGTCTTGATTCGCTTGACGCTGCTG	11.4 z-score	1.83 z-score	8.77 z-score	
CCGATTAACATCAACTTTTCCCCTGATGTTAATCGGGTCTTGATTCGCTTGACGCTGCTG	7.19 z-score	9 z-score	5.09 z-score	
CCGATTAACATCAGGGGCTTCCATGATGTTAATCGGGTCTTGATTCGCTTGACGCTGCTG	4.89 z-score	0.135 z-score	5.03 z-score	6.97 z-score
CCGATTAACATCAGGGGGTTACCTGATGTTAATCGGGTCTTGATTCGCTTGACGCTGCTG	6.63 z-score	4.04 z-score	8.61 z-score	
CCGATTAACATCAAAGGGGCTACTGATGTTAATCGGGTCTTGATTCGCTTGACGCTGCTG	3.08 z-score	0.895 z-score	3.2 z-score	0.61 z-score
CCGATTAACATCAGGACTTTCCCTGATGTTAATCGGGTCTTGATTCGCTTGACGCTGCTG	10.2 z-score	1.87 z-score	10.5 z-score	
CCGATTAACATCACGGAATGCCCTGATGTTAATCGGGTCTTGATTCGCTTGACGCTGCTG	0.18 z-score	0.241 z-score	2.6 z-score	
CCGATTAACATCATCCCTTGTCATGATGTTAATCGGGTCTTGATTCGCTTGACGCTGCTG	0.811 z-score	0.499 z-score	0.8 z-score	0.162 z-score
CCGATTAACATCATGGGGCATGCTGATGTTAATCGGGTCTTGATTCGCTTGACGCTGCTG	0.431 z-score	0.141 z-score	1.06 z-score	-0.308 z-score
CCGATTAACATCAGGAAAACCCCTGATGTTAATCGGGTCTTGATTCGCTTGACGCTGCTG	8.89 z-score	2.41 z-score	9.24 z-score	
CCGATTAACATCAGGGGGGAAAATGATGTTAATCGGGTCTTGATTCGCTTGACGCTGCTG	6.13 z-score	11.5 z-score	6.28 z-score	
